Test results published in US20260226493A1, “HERBICIDE RESISTANT PLANTS” (SYNGENTA CROP PROTECTION AG, priority 2023, published 2026).
Further values from the same series stand in other lists.

Test system: Arabidopsis thaliana BIO3-BIO1 (BioDA) mutants
Assay: BIO3-BIO1 mutant enzyme activity in the presence of herbicide, percentage inhibition (fluorometric DAPA assay)
Type: biochemical
Source text: A pet-24 plasmid containing a DNA sequence encoding each identified variant mutant of BIO3-BIO1 derived from Arabidopsis thaliana from example 5 above, as shown in Table 13 below and as shown in full in SEQ ID NOs: 15 to 155, codon-optimised for expression in E. coli, with an N-terminal 6×His-tag and thrombin cleavage site and under control of a T7 promoter, and was synthesised by Twist Bioscience, in a similar manner to SEQ ID NO:311. These plasmids were then expressed in E. coli BL21 (DE3) bioA with 50 μg/mL kanamycin and 25 μg/mL chloramphenicol selection. Overnight cultures grown at 37° C. were used to inoculate 8×500 mL AIM in shake flasks at a ratio of 1:100. Cultures were grown at 37° C., 200 rpm for 3.5 hours and then overnight at 20° C. Cells were harvested by centrifugation for 30 minutes at 10 000 g. Cells were stored at −80° C. until extraction. 30 g of cell pellet from was thawed in 120 mL of IMAC buffer A (20 mM HEPES pH7.5, 25 mM imidazole, 500 mM sodium chloride, 0.15 mM pyridoxal phosphate, 0.5 mM TCEP, 1× complete Protease Inhibitor Tablet (Roche)). The resuspension was passed through a cell disrupter at 18 000 PSI and centrifuged at 50 000 g for 25 minutes at 4° C. The His-tagged BIO3-BIO1 protein was purified from the extract supernatant on an AKTA avant chromatography system (Cytiva) using a HisTrap FF column and eluted in IMAC buffer B ((20 mM HEPES pH7.5, 500 mM imidazole, 500 mM sodium chloride, 0.15 mM pyridoxal phosphate, 0.5 mM TCEP) followed by SEC using a HiLoad 26/60 Superdex200 column in SEC buffer (25 mM HEPES pH7.5, 150 mM sodium chloride, 0.15 mM pyridoxal phosphate, 0.5 mM TCEP). Protein concentration was measured and calculated using the absorbance at 280 nm. Extracts were diluted 1 in 4 and 10 uL was analysed by SDS PAGE.
To measure BIO3-BIO1 mutant enzyme activity in the presence of herbicide, herbicides were incubated with 20 μL of enzyme mix (100 mM EPPS pH 8.6, 0.1 mM pyridoxal phosphate, 0.1 mg/mL BSA, 50 nM BIO3-BIO1 enzyme) for 10 minutes at 20° C. in a well of a 96-well half-area black plate, followed by the addition of 20 μL of substrate mix (final concentration of 100 mM EPPS pH 8.6, 0.1 mM pyridoxal phosphate, 0.1 mg/mL BSA, 100 μM spermidine, 20 μM KAPA, 100 mM NaCO3) and further incubation for 75 minutes at 20° C. The reaction was terminated by the addition of 50 μL of derivatisation mix (final concentration of 250 mM borate NaOH pH 9.4, 3.6 mM o-phthalaldehyde, 7 mM β-mercaptoethanol, 17% (v/v) ethanol, 3.6% (v/v) methanol). The fluorescent product produced by the reaction of DAPA with o-phthalaldehyde and 7 mM β-mercaptoethanol was measured at 470 nm after excitation at 410 nm. The percentage inhibition was calculated as the activity in the presence of one of three concentrations of each herbicide compound A to M (note that the compounds labelled as A to M are identified hereinabove in the relevant section of the description) as a percentage of the activity in DMSO (Table 12 and 13). The percentage activity versus WT was also calculated and is shown in Table 13 and 14 (NT indicates mutation not tested in table 13, note that these mutations are tested at different compound concentrations for compounds L, M and C, and the results are shown in table 14).

How did the percentage inhibition (variant Q517H, 0.075 μM) turn out when `CCn1c(Cn2ccc(C(F)(F)F)n2)cc(=O)c(C(=O)O)c1-c1ccc(Cl)c(Cl)c1` [Compound L, 2-(3,4-dichlorophenyl)-1-ethyl-4-oxo-6-[[3-(trifluoromethyl)pyrazol-1-yl]methyl]pyridine-3-carboxylic acid] was run?
The percentage inhibition was 4%.

And the percentage inhibition (variant Q517H, 0.5 μM)?
The percentage inhibition was 51%.

And the percentage inhibition (variant Q517I, 0.01 μM)?
The percentage inhibition was 14%.

What about the percentage inhibition (variant Q517I, 0.075 μM) of the same compound?
The percentage inhibition was 35%.

And the percentage inhibition (variant Q517I, 0.5 μM)?
Its percentage inhibition is 65%.

What about the percentage inhibition (variant Q517T, 0.01 μM) of the same compound?
The percentage inhibition was 9%.

And the percentage inhibition (variant Q517T, 0.075 μM)?
Its percentage inhibition is 50%.

And the percentage inhibition (variant Q517T, 0.5 μM)?
Its percentage inhibition is 76%.

And the percentage inhibition (variant Q517W, 0.01 μM)?
Its percentage inhibition is 14%.

What about the percentage inhibition (variant Q517W, 0.075 μM) of the same compound?
Its percentage inhibition is 32%.

And the percentage inhibition (variant Q517W, 0.5 μM)?
Its percentage inhibition is 65%.

And the percentage inhibition (variant Q517Y, 0.01 μM)?
The percentage inhibition was 8%.

What about the percentage inhibition (variant Q517Y, 0.075 μM) of the same compound?
Its percentage inhibition is 38%.

What about the percentage inhibition (variant Q517Y, 0.5 μM) of the same compound?
Its percentage inhibition is 74%.

What about the percentage inhibition (variant R756K, 0.01 μM) of the same compound?
Its percentage inhibition is 6%.

And the percentage inhibition (variant R756K, 0.075 μM)?
The percentage inhibition was 30%.

And the percentage inhibition (variant R756K, 0.5 μM)?
The percentage inhibition was 64%.

And the percentage inhibition (variant R756S, 0.01 μM)?
The percentage inhibition was 10%.

And the percentage inhibition (variant R756S, 0.075 μM)?
The percentage inhibition was 49%.

And the percentage inhibition (variant R756S, 0.5 μM)?
Its percentage inhibition is 82%.

What about the percentage inhibition (variant R790C, 0.01 μM) of the same compound?
Its percentage inhibition is 0%.

What about the percentage inhibition (variant R790C, 0.075 μM) of the same compound?
The percentage inhibition was 4%.

And the percentage inhibition (variant R790C, 0.5 μM)?
Its percentage inhibition is 55%.

What about the percentage inhibition (variant R797Q, 0.01 μM) of the same compound?
The percentage inhibition was 5%.

What about the percentage inhibition (variant R797Q, 0.075 μM) of the same compound?
The percentage inhibition was 10%.

And the percentage inhibition (variant R797Q, 0.5 μM)?
The percentage inhibition was 26%.

And the percentage inhibition (variant S390C, 0.01 μM)?
The percentage inhibition was 1%.

What about the percentage inhibition (variant S390C, 0.075 μM) of the same compound?
The percentage inhibition was 45%.

And the percentage inhibition (variant S390C, 0.5 μM)?
Its percentage inhibition is 82%.

And the percentage inhibition (variant S509A, 0.01 μM)?
Its percentage inhibition is 0%.

What about the percentage inhibition (variant S509A, 0.075 μM) of the same compound?
Its percentage inhibition is 0%.

What about the percentage inhibition (variant S509A, 0.5 μM) of the same compound?
Its percentage inhibition is 20%.

And the percentage inhibition (variant S509C, 0.01 μM)?
Its percentage inhibition is 12%.

And the percentage inhibition (variant S509C, 0.075 μM)?
The percentage inhibition was 41%.

And the percentage inhibition (variant S509C, 0.5 μM)?
Its percentage inhibition is 62%.

And the percentage inhibition (variant S509D, 0.01 μM)?
The percentage inhibition was 14%.

And the percentage inhibition (variant S509D, 0.075 μM)?
The percentage inhibition was 14%.

What about the percentage inhibition (variant S509D, 0.5 μM) of the same compound?
Its percentage inhibition is 63%.

And the percentage inhibition (variant S509E, 0.01 μM)?
Its percentage inhibition is 0%.

And the percentage inhibition (variant S509E, 0.075 μM)?
The percentage inhibition was 22%.

What about the percentage inhibition (variant S509E, 0.5 μM) of the same compound?
The percentage inhibition was 41%.

What about the percentage inhibition (variant S509F, 0.01 μM) of the same compound?
Its percentage inhibition is 3%.

And the percentage inhibition (variant S509F, 0.075 μM)?
Its percentage inhibition is 0%.

What about the percentage inhibition (variant S509F, 0.5 μM) of the same compound?
The percentage inhibition was 18%.

What about the percentage inhibition (variant S509G, 0.01 μM) of the same compound?
Its percentage inhibition is 30%.

And the percentage inhibition (variant S509G, 0.075 μM)?
Its percentage inhibition is 69%.

And the percentage inhibition (variant S509G, 0.5 μM)?
Its percentage inhibition is 84%.

What about the percentage inhibition (variant S509H, 0.01 μM) of the same compound?
Its percentage inhibition is 0%.

What about the percentage inhibition (variant S509H, 0.075 μM) of the same compound?
The percentage inhibition was 4%.

And the percentage inhibition (variant S509H, 0.5 μM)?
The percentage inhibition was 31%.

And the percentage inhibition (variant S509I, 0.01 μM)?
Its percentage inhibition is 3%.

What about the percentage inhibition (variant S509I, 0.075 μM) of the same compound?
The percentage inhibition was 2%.

And the percentage inhibition (variant S509I, 0.5 μM)?
The percentage inhibition was 22%.

And the percentage inhibition (variant S509K, 0.01 μM)?
The percentage inhibition was 0%.

And the percentage inhibition (variant S509K, 0.075 μM)?
The percentage inhibition was 26%.

And the percentage inhibition (variant S509K, 0.5 μM)?
The percentage inhibition was 42%.

And the percentage inhibition (variant S509L, 0.01 μM)?
The percentage inhibition was 0%.

And the percentage inhibition (variant S509L, 0.075 μM)?
The percentage inhibition was 3%.

What about the percentage inhibition (variant S509L, 0.5 μM) of the same compound?
The percentage inhibition was 31%.

And the percentage inhibition (variant S509N, 0.01 μM)?
Its percentage inhibition is 3%.

And the percentage inhibition (variant S509N, 0.075 μM)?
The percentage inhibition was 5%.

What about the percentage inhibition (variant S509N, 0.5 μM) of the same compound?
The percentage inhibition was 65%.

What about the percentage inhibition (variant S509Q, 0.01 μM) of the same compound?
Its percentage inhibition is 0%.

What about the percentage inhibition (variant S509Q, 0.075 μM) of the same compound?
The percentage inhibition was 11%.

What about the percentage inhibition (variant S509Q, 0.5 μM) of the same compound?
Its percentage inhibition is 41%.

And the percentage inhibition (variant S509R, 0.01 μM)?
Its percentage inhibition is 0%.

What about the percentage inhibition (variant S509R, 0.075 μM) of the same compound?
The percentage inhibition was 20%.

And the percentage inhibition (variant S509R, 0.5 μM)?
Its percentage inhibition is 61%.

What about the percentage inhibition (variant S509T, 0.01 μM) of the same compound?
Its percentage inhibition is 3%.

What about the percentage inhibition (variant S509T, 0.075 μM) of the same compound?
Its percentage inhibition is 58%.

What about the percentage inhibition (variant S509T, 0.5 μM) of the same compound?
Its percentage inhibition is 91%.

What about the percentage inhibition (variant S509V, 0.01 μM) of the same compound?
Its percentage inhibition is 12%.

What about the percentage inhibition (variant S509V, 0.075 μM) of the same compound?
Its percentage inhibition is 10%.

And the percentage inhibition (variant S509V, 0.5 μM)?
Its percentage inhibition is 11%.

And the percentage inhibition (variant S509W, 0.01 μM)?
The percentage inhibition was 0%.

What about the percentage inhibition (variant S509W, 0.075 μM) of the same compound?
Its percentage inhibition is 0%.

What about the percentage inhibition (variant S509W, 0.5 μM) of the same compound?
The percentage inhibition was 0%.

What about the percentage inhibition (variant S509Y, 0.01 μM) of the same compound?
The percentage inhibition was 3%.

And the percentage inhibition (variant S509Y, 0.075 μM)?
The percentage inhibition was 0%.

What about the percentage inhibition (variant S509Y, 0.5 μM) of the same compound?
Its percentage inhibition is 19%.

What about the percentage inhibition (variant S704H, 0.01 μM) of the same compound?
The percentage inhibition was 0%.

What about the percentage inhibition (variant S704H, 0.075 μM) of the same compound?
Its percentage inhibition is 0%.

What about the percentage inhibition (variant S704H, 0.5 μM) of the same compound?
The percentage inhibition was 0%.

And the percentage inhibition (variant S704P, 0.01 μM)?
The percentage inhibition was 0%.

What about the percentage inhibition (variant S704P, 0.075 μM) of the same compound?
The percentage inhibition was 0%.

And the percentage inhibition (variant S704P, 0.5 μM)?
Its percentage inhibition is 42%.
